Four compounds from PubChem BioAssay AID344 (DTP/NCI, 2004) can be followed below.

The test system of the assay is mice, LPC-1 plasma cell tumor ip, median survival T/C. Kind of assay: NCI In Vivo Anticancer Drug Screen. Data for tumor model Lieberman Plasma Cell No. 1 (LPC-1) (intraperitoneal) in unknown mice. The following applies: endpoint: median survival time, schedule: Q01DX028 (sc), higher = longer survival. On the procedure: The antitumor activity of compounds was measured in mice bearing transplantable tumors. Survival or tumor size were measured and the results are expressed as the measurement made in the treated group (T) divided by the measurement made in the vehicle treated control group (C). The tumor model used in this assay is Lieberman Plasma Cell No. 1 (LPC-1) (intraperitoneal) in unknown mice

Toxic doses and inconclusive results are not listed. Some entries of the source have several records that differ or are many. The list is limited to them. The source may hold further records. Values that stand side by side repeat one measurement (runs, samples, wells, individuals or studies). Brackets tell where a record comes from. The letters are not those of the source and start again with each entry.

As to `OC(CBr)C(O)C(O)C(O)CBr` (stereo not given), the T/C is, setting by setting: (dose: 62.5 mg/kg/injection, vehicle: carboxymethylcellulose (CMC)) 89 % of control, 151 % of control [sample A] and 94 % of control [sample B]; (dose: 250.0 mg/kg/injection, vehicle: carboxymethylcellulose (CMC)) 161 % of control [sample A] and 94 % of control [sample B].

As to `O=NN(CCCl)C(=O)NC1CCCCC1`, the T/C (dose: 22.0 mg/kg/injection, vehicle: carboxymethylcellulose (CMC)) is 102 % of control and 162 % of control.

For the compound `O=P1(N(CCCl)CCCl)NCCCO1` (stereo not given), the T/C (dose: 5.0 mg/kg/injection, vehicle: saline) was 120 % of control and 165 % of control. In the case of `N[C@@H](Cc1ccc(N(CCCl)CCCl)cc1)C(=O)O`, the T/C (dose: 0.65 mg/kg/injection, vehicle: saline) was 118 % of control, 165 % of control, 175 % of control.
